# Assay results reported in the supplement of paper PMC8728848.
# The list shows a part of the results.
# B1: PpFlo2 (Pichia pastoris) (protein)
# chain: MGSSHHHHHHSSGLVPRGSHMDDSGNGDNSDTAYGCDITTNAVDGFDATIYQYNANDLRLIRDPTFMSTGYLGRNVLNKISGVTVPGFNIWNPSSRTATVYGVKNVNYYNMVLELKGYFKADVSGDYKLTLSHIDDSSMLFFGKETAFKCCDAGSIPLNEAPTDYSLFTIKPSNQVNSEVISATQYLEAGKYYPVRIVFVNALERARFDFKLTIPSGAVLDDFQNYIYQFGDLDENSCHE
# What was measured:
# Assay in all cases: glycan array binding signal (z-score within array); higher = stronger binding
# Conditions in all cases: glycan notation: IUPAC condensed, linker removed
# [1] = biological target: Neu5Ac(a2-6)Gal(b1-4)GlcNAc(b1-3)Gal(b1-4)[Fuc(a1-3)]GlcNAc(b1-3)Gal(b1-4)[Fuc(a1-3)]GlcNAc
# In short: (§1)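 The Consortium for Functional Glycomics database supplied 3228 glycan arrays, of which those lacking an available protein sequence were dropped. The binding signal, a within-array Z-score, was averaged across arrays of the same protein sequence and across linkers. Negative scores can be read as non-binding.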
# [2] = biological target: Neu5Ac(a2-6)Gal(b1-4)GlcNAc(b1-3)GalNAc
# In short: as §1
# [3] = biological target: Neu5Ac(a2-6)Gal(b1-4)GlcNAc(b1-3)[Neu5Ac(a2-6)Gal(b1-4)GlcNAc(b1-6)]GalNAc
# In short: as §1
# [4] = biological target: Neu5Ac(a2-6)Gal(b1-4)GlcNAc(b1-6)GalNAc
# In short: as §1
# [5] = biological target: Neu5Ac(a2-6)Gal(b1-4)GlcNAc(b1-6)[Gal(b1-3)GlcNAc(b1-3)]Gal(b1-4)Glc
# In short: as §1
# [6] = biological target: Neu5Ac(a2-6)Gal(b1-4)GlcNAc(b1-6)[Gal(b1-3)]GalNAc
# In short: as §1
# [7] = biological target: Neu5Ac(a2-6)Gal(b1-4)GlcNAc6S
# In short: as §1
# [8] = biological target: Neu5Ac(a2-6)GalNAc
# In short: as §1
# [9] = biological target: Neu5Ac(a2-6)GalNAc(b1-4)GlcNAc
# In short: as §1
# [10] = biological target: Neu5Ac(a2-6)GalNAc(b1-4)GlcNAc6S
# In short: as §1
# [11] = biological target: Neu5Ac(a2-6)GlcNAc(b1-4)GlcNAc
# In short: as §1
# [12] = biological target: Neu5Ac(a2-6)GlcNAc(b1-4)GlcNAc(b1-4)GlcNAc
# In short: as §1
# [13] = biological target: Neu5Ac(a2-8)Neu5Ac
# In short: as §1
# [14] = biological target: Neu5Ac(a2-8)Neu5Ac(a2-3)Gal(b1-3)GalNAc(b1-4)[Neu5Ac(a2-3)]Gal(b1-4)Glc
# In short: as §1
# [15] = biological target: Neu5Ac(a2-8)Neu5Ac(a2-3)Gal(b1-3)GalNAc(b1-4)[Neu5Ac(a2-8)Neu5Ac(a2-3)]Gal(b1-4)Glc
# In short: as §1
# [16] = biological target: Neu5Ac(a2-8)Neu5Ac(a2-3)Gal(b1-4)Glc
# In short: as §1
# [17] = biological target: Neu5Ac(a2-8)Neu5Ac(a2-3)Gal(b1-4)GlcNAc
# In short: as §1
# [18] = biological target: Neu5Ac(a2-8)Neu5Ac(a2-3)[Gal(b1-3)GalNAc(b1-4)]Gal(b1-4)Glc
# In short: as §1
# [19] = biological target: Neu5Ac(a2-8)Neu5Ac(a2-3)[GalNAc(b1-4)]Gal(b1-4)Glc
# In short: as §1
# [20] = biological target: Neu5Ac(a2-8)Neu5Ac(a2-8)Neu5Ac
# In short: as §1
# [21] = biological target: Neu5Ac(a2-8)Neu5Ac(a2-8)Neu5Ac(a2-3)Gal(b1-4)Glc
# In short: as §1
# [22] = biological target: Neu5Ac(a2-8)Neu5Ac(a2-8)Neu5Ac(a2-3)[Gal(b1-3)GalNAc(b1-4)]Gal(b1-4)Glc
# In short: as §1
# [23] = biological target: Neu5Ac(a2-8)Neu5Ac(a2-8)Neu5Ac(a2-3)[GalNAc(b1-4)]Gal(b1-4)Glc
# In short: as §1
# [24] = biological target: Neu5Ac(a2-8)Neu5Ac(a2-8)Neu5Ac(a2-8)Neu5Ac(a2-3)[GalNAc(b1-4)]Gal(b1-4)Glc
# In short: as §1
# [25] = biological target: Neu5Ac(a2-8)Neu5Gc(a2-3)Gal(b1-4)GlcNAc
# In short: as §1
# [26] = biological target: Neu5Ac(b2-6)Gal(b1-4)GlcNAc
# In short: as §1
# [27] = biological target: Neu5Ac(b2-6)GalNAc
# In short: as §1
# [28] = biological target: Neu5Ac9Ac(a2-3)Gal(b1-3)GlcNAc
# In short: as §1
# [29] = biological target: Neu5Ac9Ac(a2-3)Gal(b1-4)GlcNAc
# In short: as §1
# [30] = biological target: Neu5Ac9Ac(a2-6)Gal(b1-4)GlcNAc
# In short: as §1
# [31] = biological target: Neu5Gc(a2-3)Gal(b1-3)GlcNAc
# In short: as §1
# [32] = biological target: Neu5Gc(a2-3)Gal(b1-3)[Fuc(a1-4)]GlcNAc
# In short: as §1
# [33] = biological target: Neu5Gc(a2-3)Gal(b1-4)Glc
# In short: as §1
# [34] = biological target: Neu5Gc(a2-3)Gal(b1-4)GlcNAc
# In short: as §1
# [35] = biological target: Neu5Gc(a2-3)Gal(b1-4)GlcNAc(b1-3)Gal(b1-4)GlcNAc(b1-2)Man(a1-3)[Neu5Gc(a2-3)Gal(b1-4)GlcNAc(b1-3)Gal(b1-4)GlcNAc(b1-2)Man(a1-6)]Man(b1-4)GlcNAc(b1-4)GlcNAc
# In short: as §1
# [36] = biological target: Neu5Gc(a2-3)Gal(b1-4)[Fuc(a1-3)]GlcNAc
# In short: as §1
# [37] = biological target: Neu5Gc(a2-6)Gal(b1-4)GlcNAc
# In short: as §1
# [38] = biological target: Neu5Gc(a2-6)GalNAc
# In short: as §1
# [39] = biological target: Neu5Gc(a2-8)Neu5Ac(a2-3)Gal(b1-4)GlcNAc
# In short: as §1
# [40] = biological target: Neu5Gc(a2-8)Neu5Gc(a2-3)Gal(b1-4)GlcNAc
# In short: as §1
# [41] = biological target: Neu5Gc(a2-8)Neu5Gc(a2-3)Gal(b1-4)GlcNAc(b1-3)Gal(b1-4)GlcNAc
# In short: as §1
# [42] = biological target: Neu5Gc(a2-8)Neu5Gc(a2-6)Gal(b1-4)GlcNAc
# In short: as §1
# [43] = biological target: Neu5Gc(b2-6)Gal(b1-4)GlcNAc
# In short: as §1
binder,measurement,setting,value
B1,glycan array binding signal (z-score),[1],-0.263
same,glycan array binding signal (z-score),[2],-0.269
same,glycan array binding signal (z-score),[3],-0.053
same,glycan array binding signal (z-score),[4],-0.275
same,glycan array binding signal (z-score),[5],-0.26
same,glycan array binding signal (z-score),[6],-0.265
same,glycan array binding signal (z-score),[7],-0.297
same,glycan array binding signal (z-score),[8],-0.3
same,glycan array binding signal (z-score),[9],-0.299
same,glycan array binding signal (z-score),[10],-0.276
same,glycan array binding signal (z-score),[11],-0.281
same,glycan array binding signal (z-score),[12],-0.275
same,glycan array binding signal (z-score),[13],-0.296
same,glycan array binding signal (z-score),[14],-0.266
same,glycan array binding signal (z-score),[15],-0.2
same,glycan array binding signal (z-score),[16],-0.301
same,glycan array binding signal (z-score),[17],-0.272
same,glycan array binding signal (z-score),[18],-0.297
same,glycan array binding signal (z-score),[19],-0.301
same,glycan array binding signal (z-score),[20],-0.301
same,glycan array binding signal (z-score),[21],-0.298
same,glycan array binding signal (z-score),[22],-0.275
same,glycan array binding signal (z-score),[23],-0.303
same,glycan array binding signal (z-score),[24],-0.302
same,glycan array binding signal (z-score),[25],-0.27
same,glycan array binding signal (z-score),[26],-0.301
same,glycan array binding signal (z-score),[27],-0.304
same,glycan array binding signal (z-score),[28],-0.299
same,glycan array binding signal (z-score),[29],-0.297
same,glycan array binding signal (z-score),[30],-0.297
same,glycan array binding signal (z-score),[31],-0.301
same,glycan array binding signal (z-score),[32],-0.265
same,glycan array binding signal (z-score),[33],-0.298
same,glycan array binding signal (z-score),[34],-0.299
same,glycan array binding signal (z-score),[35],-0.245
same,glycan array binding signal (z-score),[36],-0.293
same,glycan array binding signal (z-score),[37],-0.294
same,glycan array binding signal (z-score),[38],-0.298
same,glycan array binding signal (z-score),[39],-0.277
same,glycan array binding signal (z-score),[40],-0.271
same,glycan array binding signal (z-score),[41],-0.255
same,glycan array binding signal (z-score),[42],-0.273
same,glycan array binding signal (z-score),[43],-0.298
